Measurements published in paper PMC9922296, “Mechanistic insights into RNA surveillance by the canonical poly(A) polymerase Pla1 of the MTREC complex” (Nature Communications, 2023).
Results are given in words; binding and its absence hold for the method and conditions named. For part of these data: Binding seen in cells or lysates may run through a third protein. Some results given as binding are weak or reduced against the parent protein; the word gives no strength. For part of these data: Where a sequence is shown, tags or fusion partners need not be part of it. Blank lines part the entries; values can stand above or below the binder they belong to.

Legend:
[1] = target: T1, Pla1FL (full-length Pla1, residues 1-566) (S. pombe) (UniProt Q10295); experiment: SEC; Pla1FL mixed with Red1 288-345 (molar ratio 1:1.2), elution profile compared with free Pla1FL and free Red1 288-345; 20 mM HEPES pH 7.5, 150 mM NaCl, 1 mM DTT; both purified
T1 sequence: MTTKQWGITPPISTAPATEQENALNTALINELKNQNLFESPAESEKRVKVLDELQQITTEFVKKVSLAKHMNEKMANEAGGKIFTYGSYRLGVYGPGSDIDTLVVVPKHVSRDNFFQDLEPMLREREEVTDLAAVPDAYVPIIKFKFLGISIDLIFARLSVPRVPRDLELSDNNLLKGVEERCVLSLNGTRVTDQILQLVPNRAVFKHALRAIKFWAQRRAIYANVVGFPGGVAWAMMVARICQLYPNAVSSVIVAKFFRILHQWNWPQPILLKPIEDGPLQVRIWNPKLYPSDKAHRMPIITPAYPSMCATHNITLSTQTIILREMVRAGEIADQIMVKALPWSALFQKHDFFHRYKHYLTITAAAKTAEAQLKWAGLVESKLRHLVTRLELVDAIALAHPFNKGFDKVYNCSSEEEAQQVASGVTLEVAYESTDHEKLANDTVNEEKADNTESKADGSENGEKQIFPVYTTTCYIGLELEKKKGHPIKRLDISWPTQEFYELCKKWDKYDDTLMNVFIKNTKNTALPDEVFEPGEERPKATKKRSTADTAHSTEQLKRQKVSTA

[2] = target: T2, Pla1RRM (C-terminal RRM domain of Pla1, residues 352-566) (S. pombe) (UniProt Q10295); experiment: condition: 400-500 µM in the syringe, 40-50 µM in the cell; ITC; Red1 or Iss1 construct in the syringe (400-500 µM) titrated into Pla1RRM (wild type or mutant) in the cell (40-50 µM); 25 °C; 20 mM HEPES pH 7.5, 150 mM NaCl, 2 mM BME; one-binding site model; each independent measurement listed; both purified
T2 sequence: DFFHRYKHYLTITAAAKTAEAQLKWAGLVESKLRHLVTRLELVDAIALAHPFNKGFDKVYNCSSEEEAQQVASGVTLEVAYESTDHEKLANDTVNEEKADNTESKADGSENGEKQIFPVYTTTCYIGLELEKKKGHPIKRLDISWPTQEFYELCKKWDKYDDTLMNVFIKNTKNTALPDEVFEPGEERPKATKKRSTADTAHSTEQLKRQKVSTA

[3] = target: T3, Pla1 NTD-MD (residues 1-352) fused to the Gal4 DNA binding domain (S. pombe) (UniProt Q10295); experiment: two-hybrid; Gal4 DNA binding domain (pGBKT7) and activation domain (pGADT7) fusions co-transformed into PJ69-4A; 10-fold serial dilutions on SDC-Leu-Trp, -His (weak) and -Ade (strong), 30 °C, 3 days
T3 sequence: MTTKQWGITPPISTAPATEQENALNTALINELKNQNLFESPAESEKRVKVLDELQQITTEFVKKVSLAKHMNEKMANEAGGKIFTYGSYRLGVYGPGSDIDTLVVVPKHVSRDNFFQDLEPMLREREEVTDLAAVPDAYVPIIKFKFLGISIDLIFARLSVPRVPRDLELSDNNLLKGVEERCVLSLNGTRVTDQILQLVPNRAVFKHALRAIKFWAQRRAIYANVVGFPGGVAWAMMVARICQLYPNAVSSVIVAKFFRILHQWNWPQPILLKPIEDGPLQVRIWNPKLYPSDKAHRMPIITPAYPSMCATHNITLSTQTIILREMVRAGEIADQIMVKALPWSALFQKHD

[4] = target: T4, Pla1 RRM domain (residues 352-566) fused to the Gal4 DNA binding domain (S. pombe) (UniProt Q10295); experiment: as above
T4 sequence: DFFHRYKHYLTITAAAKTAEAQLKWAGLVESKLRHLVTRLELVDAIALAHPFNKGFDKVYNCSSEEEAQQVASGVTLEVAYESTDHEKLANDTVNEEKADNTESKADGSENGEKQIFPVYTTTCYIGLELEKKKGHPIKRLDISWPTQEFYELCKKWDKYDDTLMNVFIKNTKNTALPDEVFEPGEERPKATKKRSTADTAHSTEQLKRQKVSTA

[5] = target: T5, Full-length Pla1 fused to the Gal4 DNA binding domain (S. pombe) (UniProt Q10295); experiment: as above
T5 sequence: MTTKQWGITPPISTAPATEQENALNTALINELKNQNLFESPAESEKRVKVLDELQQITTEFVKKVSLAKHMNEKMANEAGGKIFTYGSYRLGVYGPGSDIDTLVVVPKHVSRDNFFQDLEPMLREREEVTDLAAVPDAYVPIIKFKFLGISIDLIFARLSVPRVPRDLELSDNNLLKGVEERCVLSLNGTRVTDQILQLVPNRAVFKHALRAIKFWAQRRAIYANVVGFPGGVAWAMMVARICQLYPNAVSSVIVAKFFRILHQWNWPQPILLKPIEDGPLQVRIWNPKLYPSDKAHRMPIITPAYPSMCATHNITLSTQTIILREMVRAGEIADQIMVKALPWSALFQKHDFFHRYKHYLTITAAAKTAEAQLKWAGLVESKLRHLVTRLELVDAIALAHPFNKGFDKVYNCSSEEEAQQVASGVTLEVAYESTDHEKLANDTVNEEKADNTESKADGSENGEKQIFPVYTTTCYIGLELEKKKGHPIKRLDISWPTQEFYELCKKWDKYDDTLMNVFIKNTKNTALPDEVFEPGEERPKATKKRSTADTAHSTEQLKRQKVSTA

[6] = target: T6, His6-MBP fused to Red1 residues 240-345 (S. pombe) (UniProt Q9UTR8); experiment: pull-down; bacterial cell lysates co-expressing His6-MBP-Red1 fragments with untagged Pla1RRM; elution fractions on 12% SDS-PAGE
T6 sequence: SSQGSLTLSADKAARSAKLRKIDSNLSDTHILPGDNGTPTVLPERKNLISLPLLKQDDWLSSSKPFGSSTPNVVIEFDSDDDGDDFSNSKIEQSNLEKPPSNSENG

[7] = target: T7, His6-MBP fused to Red1 residues 288-322 (S. pombe) (UniProt Q9UTR8); experiment: as above
T7 sequence: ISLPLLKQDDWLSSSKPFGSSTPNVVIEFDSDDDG

[8] = target: T8, His6-MBP fused to Red1 residues 288-345 (S. pombe) (UniProt Q9UTR8); experiment: as above
T8 sequence: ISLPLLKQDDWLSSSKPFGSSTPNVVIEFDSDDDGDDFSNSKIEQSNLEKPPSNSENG

[9] = target: T9, C-terminal RRM domain of Pla1 (Pla1RRM, residues 352-566), purified (S. pombe) (UniProt Q10295); experiment: condition: 400-500 µM in the syringe, 40-50 µM in the cell; ITC; MicroCal PEAQ-ITC, 25 °C, 20 mM HEPES pH 7.5, 150 mM NaCl, 2 mM BME; 40-50 µM protein in the cell, 400-500 µM ligand in the syringe; one-binding site model; both purified
T9 sequence: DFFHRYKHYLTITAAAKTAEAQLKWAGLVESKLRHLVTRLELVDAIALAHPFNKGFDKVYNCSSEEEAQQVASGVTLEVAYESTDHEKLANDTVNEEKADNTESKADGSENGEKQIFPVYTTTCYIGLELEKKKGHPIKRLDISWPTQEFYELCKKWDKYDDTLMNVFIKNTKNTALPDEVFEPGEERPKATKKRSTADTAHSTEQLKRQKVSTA

B1: Red1 288-345 (domain or fragment, S. pombe)
chain: ISLPLLKQDDWLSSSKPFGSSTPNVVIEFDSDDDGDDFSNSKIEQSNLEKPPSNSENG
notes: source: E. coli BL21 (DE3), purified (His-Trap, TEV cleavage, second IMAC, Superdex 75); not shown: GB1, N-terminal, cleaved; His6, C-terminal, kept
binding [1]: binds

B4: Full-length Red1 fused to the Gal4 activation domain (protein, UniProt Q9UTR8 1-712)
chain: MSRSINLDELRKKALESKKKNEEDESNDSDKEDGEISEDDPVIDQSNSVPPMKVPTFPEQIPQLPPFDRFPGTNANFFPFGAPFMLPPALMFGPNTVPFFPQTASSNKTFSKRKRSSENSFNNRNKAKSSETSDSSNTSQSFKENRALKDTATSRPLALSSDTSYQKSEKAKSEKSPFLSTSKNSDANYSKTTNQKEAEKAVSQLFEVGVRFNDFIAEGIEPSVVHTLFLKLGLDSSSASSQGSLTLSADKAARSAKLRKIDSNLSDTHILPGDNGTPTVLPERKNLISLPLLKQDDWLSSSKPFGSSTPNVVIEFDSDDDGDDFSNSKIEQSNLEKPPSNSENGLTMSRSDYLALLRNKEEEIRRMTKLILRLESNKKPYRSPTSAADMKLPSVPVAAVDNKSKTHLDTFEKVVDLSSKADFVEAGPSISSSGASSSAATTNSDTTEQILEAPWLRKTEQIAVVHEEHPAQIKKSEIDILNNLIEKEEGELTKYQTLVKSKTEILTQLYTRKKQLLEQQGKGNVACLPKESDLSMDSITEVSAQADENSSQILSSKTSNAPNGTTETDFEDKVPLVDYISPFYRFKSYRFNQQFVERVPLKYRSLTYSNKIEPMKVFCKYETTGGVCNDDHCEASHFRDIKMTDDEIIQDLSRYIEGNDEIEKESYKSGLDIVMKNTDENTDFVDVATRIVEYHNLWKSERMTIPVAKVSI
binding [3]: no binding | binding [4]: binds | binding [5]: binds

B5: C-terminal RRM domain of Pla1 (Pla1RRM, residues 352-566), purified (domain or fragment)
chain: DFFHRYKHYLTITAAAKTAEAQLKWAGLVESKLRHLVTRLELVDAIALAHPFNKGFDKVYNCSSEEEAQQVASGVTLEVAYESTDHEKLANDTVNEEKADNTESKADGSENGEKQIFPVYTTTCYIGLELEKKKGHPIKRLDISWPTQEFYELCKKWDKYDDTLMNVFIKNTKNTALPDEVFEPGEERPKATKKRSTADTAHSTEQLKRQKVSTA
binding [6]: binds | binding [7]: binds | binding [8]: binds

B6: W298A/F305A double mutant of Red1 residues 288-345 (domain or fragment, UniProt Q9UTR8 288-345)
chain: ISLPLLKQDDALSSSKPAGSSTPNVVIEFDSDDDGDDFSNSKIEQSNLEKPPSNSENG
binding [9]: no binding

More lines, now with the values ahead:

binding [2]: no binding
B2: Red1 288-345 W298A/F305A (domain or fragment, UniProt Q9UTR8 288-345)
chain: ISLPLLKQDDALSSSKPAGSSTPNVVIEFDSDDDGDDFSNSKIEQSNLEKPPSNSENG

binding [2]: no binding
B3: Red1 288-345 RSRR (domain or fragment, UniProt Q9UTR8 288-345)
chain: ISLPLLKQDDWLSSSKPFGSSTPNVVIEFRSRRDGDDFSNSKIEQSNLEKPPSNSENG

binding [9]: no binding
B7: Red1_(RSRR): Red1 residues 288-345 with D317/S318/D319/D320 changed to RSRR (domain or fragment, UniProt Q9UTR8 288-345)
chain: ISLPLLKQDDWLSSSKPFGSSTPNVVIEFRSRRDGDDFSNSKIEQSNLEKPPSNSENG

binding [5]: no binding
B8: Red1 with residues 288-345 deleted (yeast two-hybrid) (protein, UniProt Q9UTR8)
chain: MSRSINLDELRKKALESKKKNEEDESNDSDKEDGEISEDDPVIDQSNSVPPMKVPTFPEQIPQLPPFDRFPGTNANFFPFGAPFMLPPALMFGPNTVPFFPQTASSNKTFSKRKRSSENSFNNRNKAKSSETSDSSNTSQSFKENRALKDTATSRPLALSSDTSYQKSEKAKSEKSPFLSTSKNSDANYSKTTNQKEAEKAVSQLFEVGVRFNDFIAEGIEPSVVHTLFLKLGLDSSSASSQGSLTLSADKAARSAKLRKIDSNLSDTHILPGDNGTPTVLPERKNLLTMSRSDYLALLRNKEEEIRRMTKLILRLESNKKPYRSPTSAADMKLPSVPVAAVDNKSKTHLDTFEKVVDLSSKADFVEAGPSISSSGASSSAATTNSDTTEQILEAPWLRKTEQIAVVHEEHPAQIKKSEIDILNNLIEKEEGELTKYQTLVKSKTEILTQLYTRKKQLLEQQGKGNVACLPKESDLSMDSITEVSAQADENSSQILSSKTSNAPNGTTETDFEDKVPLVDYISPFYRFKSYRFNQQFVERVPLKYRSLTYSNKIEPMKVFCKYETTGGVCNDDHCEASHFRDIKMTDDEIIQDLSRYIEGNDEIEKESYKSGLDIVMKNTDENTDFVDVATRIVEYHNLWKSERMTIPVAKVSI
